These results are taken from PubChem BioAssay AID485344 (National Center for Advancing Translational Sciences (NCATS), 2010).

Structures are written as SMILES. The campaign covered roughly 340,000 compounds. About 6,900 (2%) were called active. Rule as the data show it: active = inhibition above about 30%; inactive = below that, where a call was filed. This is a selection; strong and weak results do not stand in their true shares. The source gives no active or inactive call for entries shown without one.

By inhibition is commonly meant the change of the read-out against control, counted positive when it falls.

Sequence of UniProt P14416 (P14416 whole entry, looked up): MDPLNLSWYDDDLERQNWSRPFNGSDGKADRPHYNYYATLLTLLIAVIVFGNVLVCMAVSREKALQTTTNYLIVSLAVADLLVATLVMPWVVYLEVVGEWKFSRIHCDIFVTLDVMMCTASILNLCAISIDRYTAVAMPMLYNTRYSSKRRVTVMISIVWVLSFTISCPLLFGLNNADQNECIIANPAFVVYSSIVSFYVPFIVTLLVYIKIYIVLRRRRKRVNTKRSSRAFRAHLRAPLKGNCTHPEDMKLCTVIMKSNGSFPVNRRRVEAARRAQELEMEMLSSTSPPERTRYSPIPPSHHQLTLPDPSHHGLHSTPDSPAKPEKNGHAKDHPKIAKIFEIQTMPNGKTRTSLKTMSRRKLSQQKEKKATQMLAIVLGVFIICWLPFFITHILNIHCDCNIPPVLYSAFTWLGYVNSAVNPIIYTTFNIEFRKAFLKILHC

The target in the experiment is D(2) dopamine receptor (Homo sapiens) (UniProt P14416). Description: HTS Assay for Allosteric Antagonists of the Human D2 Dopamine Receptor: Primary Screen for Antagonists. Also: 0% is about no effect. Particulars: HEK293 TREx D2 cells, calcium flux, dopamine EC80; at 10 µM; stronger effect = higher value. The method, boiled down:
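Tetracycline-induced HEK293 TREx cells expressing D2 receptor forced-coupled to calcium signalling, loaded with no-wash calcium dye. Compounds added and calcium flux read 180 s, then dopamine added at EC80 and read a further 180 s.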
For `COc1cccc(NC(=O)/C=C/c2ccc([N+](=O)[O-])cc2)c1`, the inhibition was active: 44.6%.
As for `Cc1cc(C)cc(NC(=O)[C@H]2O[C@@H]3OC(C)(C)O[C@@H]3[C@H]3OC(C)(C)O[C@H]32)c1`, the inhibition is -5.22%.
For the compound `CC(C)CC(=O)NC1CC(=O)N(c2ccc3c(c2)OCCO3)C1` (stereo not given), the inhibition was determined as 19.3%.
Turning to `CN(Cc1ccccc1)c1nc2c(S(=O)(=O)c3cccc(Cl)c3)nnn2c2ccsc12`, the inhibition amounted to 4.23%.
Take `CCCCNC(=O)CSc1nc2cc3c(cc2c(=O)n1CCCC(=O)NCc1ccc(OC)cc1)OCO3`: the inhibition came to 0.781%.
As to `O=C1CN(C(=O)c2ccc(S(=O)(=O)N3CCCC3)cc2)C(c2ccc(F)cc2)c2cc(Br)ccc2N1` (stereo not given), the inhibition is -4.46%.
As for `COC(=O)c1ccccc1NC(=O)NCc1ccc2c(c1)CCN2C(=O)c1ccccc1`, the inhibition was 14.3%.
With `CCC1CN(S(=O)(=O)c2cc(-c3cc(C)no3)ccc2OC)c2cc(Cl)ccc2O1` (stereo not given), the inhibition was -2.31%.
On to `O=S(=O)(NCCc1csc2nc(-c3ccc(Cl)cc3)nn12)c1cccs1`, for which the inhibition is -9.1%.
For `COc1ccc(/C=C/CN2CCCC(C(=O)c3cc(F)ccc3F)C2)cc1` (stereo not given) the value was active: 34.2%; for `CC(=O)N1CCc2c(sc3c2c(=O)n(-c2ccccc2C)c(=O)n3CC(=O)Nc2ccccc2)C1`, 13.4%; for `Cc1ccc(C(=O)NNC(=O)c2cc(OCC(F)(F)F)ccc2OCC(F)(F)F)cc1`, active: 32.4%.
For the compound `Cc1ccc(S(=O)(=O)c2nc(-c3cccs3)oc2N2CCC(C)CC2)cc1`, the inhibition stood at 3%.
For `Cn1c(=O)sc2cc(NS(=O)(=O)c3ccc(C(C)(C)C)cc3)ccc21`, the inhibition was -20.8%.
For the compound `COc1ccc(C(=O)NCc2cn3ccc(C)cc3n2)cc1`, the inhibition was found to be 7.06%.
On to `Cc1c(C(=O)Nc2c(F)cccc2F)sc2ncn(Cc3ccccc3F)c(=O)c12`, for which the inhibition is -2.06%.
For `CCc1ccccc1Nc1sc(C(=O)c2ccccc2)c(N)c1S(=O)(=O)c1ccccc1` the value was 9.55%; for `CCCCN(CC)C(=O)CSc1nc2c(sc3ccccc32)c(=O)n1CCc1ccccc1`, -0.954%; for `CN(C)C(=O)c1ccc(S(=O)(=O)NCc2ccc(Cl)cc2)s1`, -0.561%.
Consider `CCc1ccccc1NC(=O)Cn1c(=O)n(-c2ccc(C)cc2)c(=O)c2cc(OC)c(OC)cc21`, for which the inhibition turned out to be 5.18%.
For the compound `CCN(CCCNC(=O)Cn1ncc2c([nH]c3ccccc32)c1=O)c1cccc(C)c1`, the inhibition amounted to 3.24%.
Turning to `COC(=O)c1scc(-c2ccc(C)cc2)c1S(=O)(=O)N1CCN(c2cccc(Cl)c2)CC1`, the inhibition was -1.9%.
For `CCCSC1=NC2(CCN(C(=O)NC3CCCCC3)CC2)N=C1c1ccc(C)cc1` the value was -2.34%; for `Cc1ccc(C)c(OCc2nc3ccccc3n2C)c1`, 0.0064%; for `Cc1ccccc1NC(=O)CSc1nc2c(oc3ccccc32)c(=O)n1Cc1ccco1`, 13.5%.
As for `Cc1nc2nc(NCc3ccccc3Cl)[nH]n2c(=O)c1Cc1ccccc1`, the inhibition is 1.95%.
For `COc1ccc([N+](=O)[O-])cc1NC(=O)C(C)OC(=O)CSC(C)C(=O)Nc1cc(C)on1` (stereo not given), the inhibition is active: 35.9%.
With `O=C(NCc1ccccc1)C1CCN(c2ncnc3c2nc2n3CCCCC2)CC1`, the inhibition was -10%.
As for `Cc1ccc(CCNC(=O)C2CC(=O)N(CCc3ccc(C)cc3)C2)cc1` (stereo not given), the inhibition was -12.4%.
Regarding `CCOC(=O)c1cccc(NC(=O)C2COc3ccc(OC)cc3C2)c1` (stereo not given), the inhibition amounted to 5.89%.
For `O=C(c1ccco1)N1CCN(CCOc2ccccc2)CC1` the value was active: 61.7%; for `O=C(NCc1ccc(Cl)cc1)c1ccc2c(c1)nnn2C1CCCC1`, -7.39%; for `COc1ccc(C)cc1NC(=O)CSc1nc(=O)n(Cc2ccco2)c2c1CCC2`, 6.59%.
On to `Cc1ccc(-n2cc(-c3ccccc3)c3c(N4CCC(C)CC4)ncnc32)cc1Cl`, for which the inhibition is 2.05%.
For the compound `Cc1cccc(N(C)S(=O)(=O)c2nnc(NC(=O)C(C)Oc3ccccc3)s2)c1` (stereo not given), the inhibition is -15.5%.
For the compound `CN1C(=O)c2ccccc2Sc2ccc(NC(=O)Cc3ccc(Cl)cc3)cc21`, the inhibition was 1.53%.
On to `COc1ccc(OC)c(CCNC(=O)c2ccc3c(c2)N(Cc2ccccc2)CCS3)c1`, for which the inhibition worked out at 3.17%.
For `CCOC(=O)c1c(NC(=O)Cn2c(=O)oc3ccccc32)oc(C)c1C(C)=O` the value was active: 30.5%; for `COC(=O)c1sccc1S(=O)(=O)N1CCN(c2cccc(C)c2)C(C)C1` (stereo not given), 2.77%; for `COc1cccc(-c2cc3c(-n4cccc4)ncnc3o2)c1`, active: 37.4%.
For `CN1CCN(C2=CC3=CC(=C(C#N)C#N)CCC3CC2)CC1` (stereo not given), the inhibition was active: 48.7%.
As to `CCc1ccc(NC(=O)C2CCCN(S(=O)(=O)c3ccc4[nH]c(=O)ccc4c3)C2)cc1` (stereo not given), the inhibition was -6.97%.
As to `CCOC(=O)C1CCN(C(=O)Cn2nc(C)n3c(cc4c(OC)cccc43)c2=O)CC1`, the inhibition stood at 10.4%.
On to `CCC1CN(C(=O)NCc2ccc(F)cc2)c2cc(C)ccc2O1` (stereo not given), for which the inhibition is -14.1%.
Turning to `O=C(CSc1ccnc(=O)[nH]1)NCc1ccc(F)cc1`, the inhibition stood at 16%.
As to `COc1cccc(C(c2sc3nc(-c4ccco4)nn3c2O)N2CCC(C)CC2)c1` (stereo not given), the inhibition is -28.4%.
Consider `CC(=O)Nc1ccc(S(=O)(=O)NCCc2csc3nc(-c4ccc(Cl)cc4)nn23)cc1`, for which the inhibition was -7.79%.
On to `CCCN(Cc1nnc(-c2cccs2)o1)C(=O)CN1C(=O)NC2(CCCCC2)C1=O`, for which the inhibition is active: 31.4%.
For `CC(C)(C)OC(=O)N1CCC(c2c(C(=O)N3CCN(c4cccc(Cl)c4)CC3)cnn2-c2cccc(Cl)c2)CC1` the value was 4.38%.
In the case of `COc1ccc(S(=O)(=O)Nc2cccc(-c3ccc(N4CCCCCC4)nn3)c2)cc1OC`, the inhibition was -6.5%.
Regarding `Cc1cccc(OCC(=O)Nc2c(C(=O)Nc3ccc(F)cc3)oc3ccccc23)c1`, the inhibition is -7.82%.
For `Cc1cccc(C(=O)NCCc2nc3ccccc3n2CCC(C)C)c1` the value was 2.48%; for `COc1ccc(NCc2cc3ccc(OC)cc3n(CC(=O)Nc3ccc(C)c(C)c3)c2=O)cc1`, -3.69%; for `O=c1c2sc3ccccc3c2n(Cc2cccc(Cl)c2)c(=O)n1Cc1ccccc1`, -9.77%.
Turning to `CCOc1ccc(OCC)c(NC(=O)c2cnn(-c3ccc(F)cc3)c2-n2cccc2)c1`, the inhibition amounted to 9.24%.
For `CCc1ccc(-n2nc(C)c3c(C)cc(=O)n(CC(=O)Nc4cc(Cl)ccc4OC)c32)cc1`, the inhibition is -4.24%.
Take `CCCN1CCN(c2nnc(-n3cccc3C(=O)Nc3ccccc3C(F)(F)F)s2)CC1`: the inhibition is 1.81%.
On to `COc1cc(NC(=O)NCCc2c(C)nn(C)c2C)cc(OC)c1OC`, for which the inhibition was -7.78%.
On to `Cc1cccc2c(=O)cc(CSc3ccccc3NC(=O)c3cccc(Cl)c3)[nH]c12`, for which the inhibition turned out to be 8.12%.
In the case of `Cc1ccc2nc(CSc3nnc(NC(=O)C(C)C)s3)cc(=O)n2c1`, the inhibition worked out at 19.7%.
With `CCCCn1cc2c(c1-c1ccc(Br)cc1)c(=O)n(C)c(=O)n2C`, the inhibition was -5.99%.
Consider `CCOc1ccc(-c2cc3c(=O)n(Cc4nc(-c5ccc(OCC)c(OC)c5)oc4C)ccn3n2)cc1Cl`, for which the inhibition is -12.8%.
As for `CSc1ccc(C2c3c(-c4ccccc4O)n[nH]c3C(=O)N2Cc2ccncc2)cc1` (stereo not given), the figure is 4.61%.
Turning to `COc1ccccc1NC(=O)c1ncn(-c2ccccc2)n1`, the inhibition was 15.7%.
For `CCCCN1C(=O)c2[nH]nc(-c3ccccc3O)c2C1c1ccc(OCc2ccccc2)c(OC)c1` (stereo not given) the value was 5.62%.
As to `Cc1ccccc1NC(=O)c1c(NC(=O)c2ccccc2F)sc2c1CCC(C)C2` (stereo not given), the inhibition came to 11.1%.
Take `COc1ccc(Cn2ccc3nc(C)c(C(=O)N4CCN(c5ccc(F)cc5)CC4)cc3c2=O)cc1`: the inhibition worked out at 6.68%.
Take `O=C(O)c1ccnc(Cl)c1`: the inhibition was active: 31.5%.
With `Cc1c(C(=O)OC2CCC(C)CC2)[nH]c2c1C(=O)CC(c1ccc(F)cc1)C2` (stereo not given), the inhibition is 5.09%.
As for `Cc1ccc(Sc2c(C)nn(C(C)(C)C)c2OC(=O)CC(C)C)cc1`, the figure is 2.73%.
As for `CCOC(=O)c1cccc(NC(=O)CCc2c(C)nn(-c3ccc(N4CCCCC4)nn3)c2C)c1`, the inhibition was -22.2%.
Consider `C=CCNCCOc1ccc(C)cc1[N+](=O)[O-]`, for which the inhibition is active: 45.8%.
For `CCCCN(CCCC)CCCNC(=O)c1ccc2nc(N3CCCCC3)sc2c1` the value was -2.29%; for `Cc1ccc(CNC(=O)CCNS(=O)(=O)c2ccc3c(c2)CCCC(=O)N3)cc1`, 8.26%; for `Cc1nn2c(=O)cc(COc3ccc(/C=C(\C#N)C(=O)Nc4ccccc4C)cc3)nc2s1`, -11.7%.
`COc1ccc(-c2nnn3c2nc(NCCc2ccc(OC)c(OC)c2)c2ccccc23)cc1`: the inhibition is 24.9%.
On to `COc1ccc(OC)c(Nc2nc3ccccc3nc2-n2nc(C)cc2C)c1`, for which the inhibition was 11.7%.
For the compound `CCOc1ccc(CNC(=O)c2ccc(CSc3nc4ccncc4n3Cc3ccc(F)cc3)cc2)cc1`, the inhibition was found to be 1.63%.
For the compound `COc1cccc(-c2cc(C(=O)Nc3cnn(Cc4ccc(Cl)cc4Cl)c3)no2)c1`, the inhibition is 1.99%.
As for `O=C(CC1N=C2c3ccccc3N=C(SCc3cccc(F)c3)N2C1=O)NCc1cccs1` (stereo not given), the inhibition was found to be 5.71%.
For the compound `COc1cccc(NC(=O)c2oc3ccccc3c2NC(=O)c2ccccc2C)c1`, the inhibition is -21.1%.
Take `COC(=O)c1ccccc1NC(=O)CSc1n[nH]c(CC(C)C)n1`: the inhibition came out at 3.82%.
As for `Cc1nn(-c2ccccc2)c2nc(C3CC3)cc(C(=O)Nc3cccc(F)c3)c12`, the inhibition was -4.5%.
`CC(C)CCNc1nc2c(-c3ccccc3)nnn2c2ccccc12`: the inhibition is -16%.
With `c1ccc(CSc2ncn[nH]2)nc1`, the inhibition was active: 42.1%.
For `CCC(=O)Nc1cccc(NC(=O)CSc2nnc(C3CC3)n2C)c1`, the inhibition was active: 30.9%.
On to `Cc1ccc(C(=O)CSc2nc3cc(C(=O)NC4CCCC4)ccc3c(=O)n2CC2CCCO2)c(C)c1` (stereo not given), for which the inhibition came out at 5.91%.
As for `Cc1ccc(S(=O)(=O)N(CC(=O)Nc2cccnc2)c2cc(Cl)ccc2C)cc1`, the figure is 7.87%; as for `CCOC(=O)CN1C(=O)N(c2ccc(C)c(C)c2)S(=O)(=O)c2ccccc21`, -11.8%; as for `Cc1ccc(CN2CCC(CNC(=O)c3cnn(-c4ccc(C)cc4)c3C3CCN(C(=O)OC(C)(C)C)CC3)CC2)cc1`, 7.51%.
For `Cc1cc(=O)n(CC(=O)Nc2ccc(Cl)c(Cl)c2)c(-n2nc(C)cc2C)n1`, the inhibition was -6.21%.
On to `Cc1cccc(NC(=O)CCCn2nc(C)c3c(C)n(-c4ccccc4)nc3c2=O)c1C`, for which the inhibition is 3.76%.
On to `COc1ccc(NC(=O)CC2C(=O)N(c3ccccc3)C(=O)N2CCc2sccc2C)cc1` (stereo not given), for which the inhibition is 6.56%.
For the compound `CCOc1ccc(CNC(=O)C2CCCN(c3nn4cc(-c5ccc(OC)cc5)nc4s3)C2)cc1` (stereo not given), the inhibition is -10.9%.
Take `O=C(Cn1ncc2c3ccccc3n(Cc3ccccc3)c2c1=O)NCc1ccccn1`: the inhibition is 9.91%.
